Test results taken from the supplement of paper PMC11417369.
± gives the standard deviation of the averaged measurements. The list shows a part of the results.

Each sequence was assayed on PfAP2-LT AP2 domain (GST-tagged) (assay: gcPBM binding intensity (ln(normalized median fluorescence intensity)); higher = stronger DNA binding).
Outline: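 Alexa488 anti-GST antibody, scanned at 488 nm, detected GST-tagged P. falciparum DNA-binding domains that had been expressed in E. coli and incubated for 1 h on an Agilent 4 × 180k array. The array carried primer-extended double-stranded 36-bp intergenic genomic probes and negative controls. Binding intensity is the highest Masliner-normalised natural-log median intensity across replicate spots of either orientation of each probe.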

Question: With “TAAAGCATATTATAAACACACACTGTATAAAGATAT [CACACA_site296]” as the sequence, how does the “gcPBM binding intensity (ln)” value read?
Answer: 9.18 ± 0.35

Question: With “TTTAAAATATATAGTACACACGTGAACACAAATACA [CACACA_site4392]” as the sequence, how does the “gcPBM binding intensity (ln)” value read?
Answer: 8.96 ± 0.42

Question: How did the “gcPBM binding intensity (ln)” value turn out when “GTACATTATTTATATACACACAAAGAAAAATATACA [CACACA_site3452]” was run?
Answer: 9.21 ± 0.25

Question: Which “gcPBM binding intensity (ln)” value does the source give for “TATACATATGAAAATACACACATACATACAGATATA [CACACA_site5002]” here?
Answer: 9.24 ± 0.31

Question: For “AAAAAAAATATAATATGTACATATCTATATATCAAC [XGTACX_site4881]”, which “gcPBM binding intensity (ln)” value is on record?
Answer: 8.8 ± 0.49

Question: For “TTGTTTTTAATATCGGTGCAATGGAAAGAAAAGAAG [GTGCAC_site9494]”, which “gcPBM binding intensity (ln)” value is on record?
Answer: 8.49 ± 0.49

Question: “ATTAAATCGATATATACACACATGTTTGGTATATTC [CACACA_site7285]” was tested. Which “gcPBM binding intensity (ln)” value did it give?
Answer: 9.26 ± 0.22

Question: “TTAAAATAAAGTAGTGGTACAAAAAAAAAAAAAAAA [XGTACX_site6322]” was tested. Which “gcPBM binding intensity (ln)” value did it give?
Answer: 8.49 ± 0.58

Question: With “TAACCTATAATATTCACACACATATAAATATTATAG [CACACA_site6592]” as the sequence, how does the “gcPBM binding intensity (ln)” value read?
Answer: 9.03 ± 0.31

Question: With “AGTAATAGTTTGTGCACACTCAAGTATATCATATAT [CACACA_site4034]” as the sequence, how does the “gcPBM binding intensity (ln)” value read?
Answer: 9.37 ± 0.38

Question: For “TTTTACTTAAAACACACACACACAAAAAAAAAAAAA [CACACA_site947]”, which “gcPBM binding intensity (ln)” value is on record?
Answer: 9.46 ± 0.31

Question: Which “gcPBM binding intensity (ln)” value does the source give for “TTTTTCAGAAAAGAAACACACATATTTATATTTATA [CACACA_site7167]” here?
Answer: 8.43 ± 0.46

Question: How did the “gcPBM binding intensity (ln)” value turn out when “TAAACAAATAAATAAACACACAATATCTGTATTTAT [CACACA_site5978]” was run?
Answer: 8.88 ± 0.46

Question: Which “gcPBM binding intensity (ln)” value does the source give for “TATATGTATATATATTAACACACAAAAAAAAAAAAA [CACACA_site8534]” here?
Answer: 8.87 ± 0.42

Question: How did the “gcPBM binding intensity (ln)” value turn out when “AATTAAATTACTTATACACACATAAAATGGGTGTAT [CACACA_site4703]” was run?
Answer: 8.97 ± 0.37

Question: For “AAAAAAAAAAAAAAGCGTACAAATAAAATATATTTA [XGTACX_site7195]”, which “gcPBM binding intensity (ln)” value is on record?
Answer: 8.52 ± 0.67

Question: “CGTATATATAAATACACACACATATATATCTGTAAA [CACACA_site4272]” was tested. Which “gcPBM binding intensity (ln)” value did it give?
Answer: 9.56 ± 0.34

Question: Which “gcPBM binding intensity (ln)” value does the source give for “TTAATTTATTTATGCACACATATATAATTACCCATA [CACACA_site682]” here?
Answer: 8.96 ± 0.42

Question: With “TTTTTATATGCGTATTGTACATTATACATATATATA [XGTACX_site6786]” as the sequence, how does the “gcPBM binding intensity (ln)” value read?
Answer: 8.81 ± 0.38

Question: With “CCTTTTTTGTTTTATGCACACCATATAACCAAGGCT [CACACA_site7893]” as the sequence, how does the “gcPBM binding intensity (ln)” value read?
Answer: 9.07 ± 0.5

Question: How did the “gcPBM binding intensity (ln)” value turn out when “TAAATGTCCTTATTTGCACACACACCCATAAGAAAT [CACACA_site3185]” was run?
Answer: 9.56 ± 0.28

Question: How did the “gcPBM binding intensity (ln)” value turn out when “ATGTAATGAAACATTGCACACATATAATAATATAAT [CACACA_site8402]” was run?
Answer: 9.31 ± 0.35

Question: For “TATATATAAAAATATACACACACAAATGTATATATA [CACACA_site7956]”, which “gcPBM binding intensity (ln)” value is on record?
Answer: 9.15 ± 0.33

Question: How did the “gcPBM binding intensity (ln)” value turn out when “ATGATGTGCAAGAGTAGTACACAATTTTGGGTTTAT [XGTACX_site501]” was run?
Answer: 9.05 ± 0.33

Question: How did the “gcPBM binding intensity (ln)” value turn out when “AAACATAAGAAACACACACACATATATATATATATA [CACACA_site3642]” was run?
Answer: 10.32 ± 0.064

Question: Which “gcPBM binding intensity (ln)” value does the source give for “AACATCAATTTATTTTCTTACATTATACGATTCATG [CACACA_negctrl_site1300]” here?
Answer: 8.71 ± 0.4

Question: “TAATTATGCCAACACACACACACACCCAACTAAAAA [CACACA_site8823]” was tested. Which “gcPBM binding intensity (ln)” value did it give?
Answer: 9.965 ± 0.092

Question: For “AAAAAAAAATCAAAATGTACTTATTTTTATAATAAT [XGTACX_site4712]”, which “gcPBM binding intensity (ln)” value is on record?
Answer: 8.33 ± 0.58

Question: How did the “gcPBM binding intensity (ln)” value turn out when “AGAATATCAAAATAAAGTACATTTATTATATATATG [XGTACX_site7100]” was run?
Answer: 8.61 ± 0.53

Question: With “TTTTCTCTCAAAAAATGTACATAATATATATATTTT [XGTACX_site4861]” as the sequence, how does the “gcPBM binding intensity (ln)” value read?
Answer: 8.51 ± 0.48

Question: Which “gcPBM binding intensity (ln)” value does the source give for “AAAAAAAAAAAACATACACACATACATACCTATATA [CACACA_site6575]” here?
Answer: 9.33 ± 0.3

Question: “ATTCTTATAACAAGAAGTACAAATATATGTATATAT [XGTACX_site4528]” was tested. Which “gcPBM binding intensity (ln)” value did it give?
Answer: 8.7 ± 0.43

Question: With “TATACATCATTTTTCAACAACAAAAAAAAAAAAAAT [CACACA_negctrl_site1185]” as the sequence, how does the “gcPBM binding intensity (ln)” value read?
Answer: 8.46 ± 0.47

Question: How did the “gcPBM binding intensity (ln)” value turn out when “ACGTAAAATAGGGACGCATGCACAAATATTTTTAAA [TGCATGCA_site336]” was run?
Answer: 9.24 ± 0.35

Question: How did the “gcPBM binding intensity (ln)” value turn out when “ATATATATAAATACAACACACATGTAATATATAAAT [CACACA_site5766]” was run?
Answer: 9.3 ± 0.38

Question: How did the “gcPBM binding intensity (ln)” value turn out when “CTATATATATATTTCAGTACATATTAAGAATATATA [XGTACX_site4860]” was run?
Answer: 8.41 ± 0.42

Question: How did the “gcPBM binding intensity (ln)” value turn out when “TAATAATTACAAAGAAGTACATAAAAAAAAATTTAT [XGTACX_site4684]” was run?
Answer: 8.6 ± 0.48

Question: With “TATATAAATATATACACACATACATACATACATATA [CACACA_site3835]” as the sequence, how does the “gcPBM binding intensity (ln)” value read?
Answer: 9.2 ± 0.33

Question: “TTCTAATAAATGTGTTGTACACCTTTAGCAACTATT [XGTACX_site3235]” was tested. Which “gcPBM binding intensity (ln)” value did it give?
Answer: 8.87 ± 0.41

Question: Which “gcPBM binding intensity (ln)” value does the source give for “TATATATATTTATGCACACAAAATATATTATATAAT [CACACA_site5955]” here?
Answer: 8.88 ± 0.33

Question: “AGGAAAAAAGAAAAAACACACATAAATATTTATATA [CACACA_site7446]” was tested. Which “gcPBM binding intensity (ln)” value did it give?
Answer: 8.85 ± 0.49

Question: With “TTATTTATTTATTGTTGTACACAAAATGATTCTTAA [XGTACX_site6480]” as the sequence, how does the “gcPBM binding intensity (ln)” value read?
Answer: 8.58 ± 0.45

Question: With “AAACAAAACAAAACATGTACACATTATATATATATA [XGTACX_site3374]” as the sequence, how does the “gcPBM binding intensity (ln)” value read?
Answer: 9.15 ± 0.4

Question: With “ATTAATTATATATATACACACACATACACCCAAATA [CACACA_site9126]” as the sequence, how does the “gcPBM binding intensity (ln)” value read?
Answer: 9.66 ± 0.23

Question: With “TAAATACTTCGTAAAACACACAAGTAGAAAAAAAAA [CACACA_site360]” as the sequence, how does the “gcPBM binding intensity (ln)” value read?
Answer: 8.83 ± 0.48
